In patent US20250144249A1, “METHODS USING SURFACE-EXPRESSIBLE ACTIVATABLE EPITOPES TO LOCALIZE AND/OR TREAT DISEASED CELLS” (EARLI Inc., priority 2022, published 2025):
“Also recorded” adds a separate entry of the source.

Legend:
Assay type in all cases: cell-based, human
H1299 cells [1] = test: cell killing assay, CellTiter Glo 2.0 (Example 7); conditions: treated with anti-DLL3-PBD, 72 hours, compared to NP116, FIG. 13B
Procedure: Next, H1299 cells stably expressing WT or engineered DLL3 were seeded 5,000 cells/well in 96 well plates. 24 hours after seeding, H1299 cells were treated with a titration of either an unconjugated anti-DLL3 antibody or an anti-DLL3 antibody conjugated to a PBD toxin (anti-DLL3-PBD). 72 hours after antibody treatment, cell viability was assessed using the CellTiter Glo 2.0 assay kit and analyzed on a Promega GloMax Navigator.

H1299 cells [2] = test: FACS detection of second-set engineered DLL3 on the surface of transfected H1299 cells (Example 5); conditions: H1299 cells transfected with construct; compared to NP247 and wild-type control NP116; FIG. 9B
H1299 cells [3] = test: number of copies of anti-DLL3 antibody bound to DLL3 on the cell surface (quantification bead standard curve)
Procedure: Next, a physical number of copies of anti-DLL3 antibody bound to DLL3 expressed on the cell surface was assessed. H1299 cells were seeded into 96 well plate. 24 hours after seeding, H1299 cells were transfected with nanoplasmid vectors comprising NP116 (wild-type control), NP247 (with a single DLL3 epitope in the CD8 scaffold), or NP298 (with two DLL3 epitopes in the CD8 scaffold) via lipofectamine according to the manufacture's protocols. H1299 cells were then stained with fluorescently labeled anti-DLL3 antibodies for FACS analysis. Cells and commercially available beads for epitope quantification were then stained with an anti-DLL3 secondary antibody conjugated to Alexa Fluor® 647 (AF647). H1299 cells were subsequently analyzed on a BD Biosciences FACSAria IIu (FIGS. 10A-10C). The number of epitopes were calculated by comparing the cell's expression to the quantification bead standard curve (FIGS. 10B-10C).
Each of NP247 and NP298 constructs and wild-type DLL3 construct (NP116) was separately introduced to H1299 cells by transfection to analyze the expression of engineered DLL3. […] H1299 cells stably expressing wild-type or engineered DLL3 and commercially available beads for epitope quantification were then stained with an anti-DLL3 secondary antibody conjugated to Alexa Fluor® 647 (AF647). H1299 cells were subsequently analyzed on a BD Biosciences FACSAria IIu. […]

B1: NP298: engineered DLL3 construct, residues 179-254 of DLL3 and a second DLL3 epitope in CD8 scaffold; SEQ ID NO: 41, 48 (protein)
chain: MALPVTALLLPLALLLHAARPEPPAVGTACTRLCRPRSAPSRCGPGLRPCAPLEDECEAPLVCRAGCSPEHGFCEQPGECRCLEGWTGPLCTVPVSTGGEPPAVGTACTRLCRPRSAPSRCGPGLRPCAPLEDECEAPLVCRAGCSPEHGFCEQPGECRCLEGWTGPLCTVPVSTGGTTTPAPRPPTPAPTIASQPLSLRPEACRPAAGGAVHTRGLDFACDFWVLVVVGGVLACYSLLVTVAFIIFWVHMGGGSGGGSAYPYDVPDYAAYPYDVPDYA
**Q.** How did the “loss of viability / susceptibility to cell death of cells expressing the construct” value (H1299 cells [1]) turn out when B1 was run?
**A.** may be more susceptible to cell death; also recorded: substantial loss of viability

**Q.** What about the “detection level of DLL3 expressed on the cell surface” value (H1299 cells [2]) of the same molecule?
**A.** increased detection level of DLL3 expressed on the cell surface; also recorded: antibody binding capacity can be increased

**Q.** What about the “increase in copy number of anti-DLL3 antibodies compared to cells expressing NP116” value (H1299 cells [3]; Example 5, H1299 cells transfected with nanoplasmid vectors, FIG. 10C) of the same molecule?
**A.** 32 fold

**Q.** And the “increase in copy number of anti-DLL3 antibodies compared to cells expressing NP116” value (H1299 cells [3]; Example 7, FIG. 13A)?
**A.** 37 fold
